# Laboratory results reported in PubChem BioAssay AID256 (DTP/NCI, 2004).
# Inconclusive results and toxic doses are left out. Some entries of the source have several records that differ or are many. This list holds those alone. An entry can have further records. The values listed for one entry are repeats (runs, samples, wells, individuals or studies). Marks in square brackets tell the records apart. A, B and so on number the origins entry by entry.
# System: CD2F1 mice, L1210 leukemia ip, survival T/C
# Assay: NCI In Vivo Anticancer Drug Screen. Data for tumor model L1210 Leukemia (intraperitoneal) in CD2F1 (CDF1) mice
# Settings: higher = longer survival
# Procedure, shortened: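 Each value reflects a quotient of treated over vehicle control outcomes in mice with a transplanted tumor.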
smiles,measurement,setting,value
Nc1nc(N)c2cc(CNc3ccc(C(=O)NC(CC(=O)O)CC(=O)O)cc3)ccc2n1,T/C,"endpoint: mean survival time, dose: 12.5 mg/kg/injection, schedule: Q01DX009 (ip), vehicle: Klucel (hydroxypropylcellulose) (HPC)",120 % of control and 185 % of control
same,T/C,"endpoint: mean survival time, dose: 100.0 mg/kg/injection, schedule: Q01DX009 (ip), vehicle: Klucel (hydroxypropylcellulose) (HPC)",113 % of control and 151 % of control
O=C(O)CCC(O)C(=O)O.[NH-]C1CCCCC1[NH-].[Pt+2] (stereo unspecified),T/C,"endpoint: median survival time, dose: 12.5 mg/kg/injection, schedule: Q04DX003 (ip), vehicle: saline",124 % of control and 154 % of control
Nc1nc([S-])c2[nH]cnc2n1.[Cl-].[Cl-].[H+].[Pd+2].[Pd+2].[Pd+2],T/C,"endpoint: mean survival time, dose: 50.0 mg/kg/injection, schedule: Q04DX003 (ip), vehicle: suspension in saline",121 % of control and 153 % of control
CN(C)N=Nc1ccc([N+](=O)[O-])cc1C(N)=O,T/C,"endpoint: mean survival time, dose: 150.0 mg/kg/injection, schedule: Q01DX009 (ip), vehicle: Klucel (hydroxypropylcellulose) (HPC)",119 % of control and 166 % of control
O=C(O)C(O)C(O)C(O)C(O)CO.[NH-]C1CCCCC1[NH-].[Pt+2] (stereo unspecified),T/C,"endpoint: mean survival time, dose: 3.12 mg/kg/injection, schedule: Q04DX003 (ip), vehicle: saline",114 % of control [sample A] and 172 % of control [sample B]
Cc1c2ccncc2c(C)c2c1[nH]c1ccccc12,T/C,"endpoint: mean survival time, dose: 100.0 mg/kg/injection, schedule: Q04DX003 (oral), vehicle: other",111 % of control and 151 % of control
same,T/C,"endpoint: mean survival time, dose: 100.0 mg/kg/injection, schedule: Q04DX003 (oral), vehicle: water",101 % of control and 153 % of control
CC[C@]1(O)C[C@H]2CN(CCc3c([nH]c4ccccc34)[C@@](C(=O)OC)(c3cc4c(cc3OC)N(C=O)[C@H]3[C@@](O)(C(=O)OC)[C@H](OC(C)=O)[C@]5(CC)C=CCN6CC[C@]43[C@@H]65)C2)C1,T/C,"endpoint: mean survival time, dose: 1.8 mg/kg/injection, schedule: Q04DX003 (ip), vehicle: water",124 % of control and 156 % of control
COc1ccc(/C=C/C(CC(NO)c2ccc(OC)cc2)=N/O)cc1 (stereo unspecified),T/C,"endpoint: mean survival time, dose: 100.0 mg/kg/injection, schedule: Q01DX001 (ip), vehicle: saline with Tween-80",101 % of control and 163 % of control
O=P1(N(CCCl)CCCl)NCCCO1 (stereo unspecified),T/C,"endpoint: mean survival time, dose: 31.25 mg/kg/injection, schedule: Q01DX001 (ip), vehicle: saline",119 % of control and 153 % of control
same,T/C,"endpoint: mean survival time, dose: 80.0 mg/kg/injection, schedule: Q01DX009 (ip), vehicle: saline","116 % of control, 124 % of control, 177 % of control"
C=C1C(=O)OC(CCCCCCCCCCCCC)C1C(=O)O (stereo unspecified),T/C,"endpoint: mean survival time, dose: 40.0 mg/kg/injection, schedule: Q04DX002 (ip), vehicle: saline with Tween-80",103 % of control and 200 % of control
CCOC(=O)CCC(NC(=O)c1ccc(N(CC)Cc2cnc3nc(N)nc(N)c3n2)cc1)C(=O)OCC (stereo unspecified),T/C,"endpoint: mean survival time, dose: 6.25 mg/kg/injection, schedule: Q01DX009 (ip), vehicle: Klucel (hydroxypropylcellulose) (HPC)",86 % of control and 152 % of control
CC1CCC(NC(=O)N(CCCl)N=O)CC1 (stereo unspecified),T/C,"endpoint: median survival time, dose: 25.0 mg/kg/injection, schedule: Q01DX001 (ip), vehicle: saline",96 % of control and 375 % of control
same,T/C,"endpoint: median survival time, dose: 30.0 mg/kg/injection, schedule: Q01DX001 (oral), vehicle: saline with Tween-80","121 % of control, 213 % of control, 377 % of control"
same,T/C,"endpoint: median survival time, dose: 50.0 mg/kg/injection, schedule: Q01DX001 (ip), vehicle: saline",123 % of control and 375 % of control
O=c1n(CC2CO2)c(=O)n(CC2CO2)c(=O)n1CC1CO1 (stereo unspecified),T/C,"endpoint: mean survival time, dose: 100.0 mg/kg/injection, schedule: Q01DX009 (ip), vehicle: saline",100 % of control [sample A] and 156 % of control [sample B]
same,T/C,"endpoint: median survival time, dose: 100.0 mg/kg/injection, schedule: Q01DX009 (oral), vehicle: saline",178 % of control [sample A] and 116 % of control [sample B]
same,T/C,"endpoint: median survival time, dose: 100.0 mg/kg/injection, schedule: Q04DX003 (ip), vehicle: saline",111 % of control [sample A] and 160 % of control [sample B]
same,T/C,"endpoint: median survival time, dose: 400.0 mg/kg/injection, schedule: Q01DX001 (oral), vehicle: saline",163 % of control [sample A] and 118 % of control [sample B]
same,T/C,"endpoint: median survival time, dose: 400.0 mg/kg/injection, schedule: Q08DX002 (oral), vehicle: saline",187 % of control [sample A] and 116 % of control [sample B]
C1CN1c1nc(N2CC2)nc(N2CC2)n1,T/C,"endpoint: mean survival time, dose: 1.0 mg/kg/injection, schedule: Q01DX009 (ip), vehicle: saline",88 % of control and 160 % of control
COC(=O)c1ccc(OC(=O)Nc2ccc(N(CCCl)CCCl)cc2)cc1,T/C,"endpoint: mean survival time, dose: 100.0 mg/kg/injection, schedule: Q01DX001 (ip), vehicle: Klucel (hydroxypropylcellulose) (HPC)",115 % of control and 153 % of control
same,T/C,"endpoint: mean survival time, dose: 200.0 mg/kg/injection, schedule: Q01DX001 (ip), vehicle: Klucel (hydroxypropylcellulose) (HPC)",112 % of control and 152 % of control
same,T/C,"endpoint: mean survival time, dose: 400.0 mg/kg/injection, schedule: Q01DX001 (ip), vehicle: Klucel (hydroxypropylcellulose) (HPC)",123 % of control and 155 % of control
CC1OC(OC2CC(O)(C(=O)CO)Cc3c(O)c4c(c(O)c32)C(=O)c2ccccc2C4=O)CC(N)C1O (stereo unspecified),T/C,"endpoint: mean survival time, dose: 0.5 mg/kg/injection, schedule: Q01DX009 (ip), vehicle: water",110 % of control and 161 % of control
Nc1n[nH]c(N)n1,T/C,"endpoint: mean survival time, dose: 800.0 mg/kg/injection, schedule: Q03HX024 (ip), vehicle: saline",93 % of control and 181 % of control
C#CCN(Cc1ccc2nc(N)[nH]c(=O)c2c1)c1ccc(C(=O)NC(CCC(=O)O)C(=O)O)cc1 (stereo unspecified),T/C,"endpoint: median survival time, dose: 240.0 mg/kg/injection, schedule: Q01DX005 (ip), vehicle: water",87 % of control and 160 % of control
CC(CCC(C)OS(C)(=O)=O)OS(C)(=O)=O (stereo unspecified),T/C,"endpoint: mean survival time, dose: 16.0 mg/kg/injection, schedule: Q01DX009 (ip), vehicle: saline",120 % of control and 158 % of control
same,T/C,"endpoint: mean survival time, dose: 32.0 mg/kg/injection, schedule: Q01DX009 (ip), vehicle: saline",88 % of control and 150 % of control
